Data: publication PMC4336329 (PLoS ONE, 2015)
Screen size: about 310,000 compounds; about 2,200 (0.71%) showed an effect of 50% or more. The effect is printed as a negative number. The list shows a part of the results.

These compounds were tested against human ether-à-go-go-related gene (hERG) potassium channel (human, UniProt Q12809) (assay: primary screen, population patch clamp on CHO cells stably expressing hERG).
human ether-à-go-go-related gene (hERG) potassium channel, sequence (Q12809 whole entry, looked up): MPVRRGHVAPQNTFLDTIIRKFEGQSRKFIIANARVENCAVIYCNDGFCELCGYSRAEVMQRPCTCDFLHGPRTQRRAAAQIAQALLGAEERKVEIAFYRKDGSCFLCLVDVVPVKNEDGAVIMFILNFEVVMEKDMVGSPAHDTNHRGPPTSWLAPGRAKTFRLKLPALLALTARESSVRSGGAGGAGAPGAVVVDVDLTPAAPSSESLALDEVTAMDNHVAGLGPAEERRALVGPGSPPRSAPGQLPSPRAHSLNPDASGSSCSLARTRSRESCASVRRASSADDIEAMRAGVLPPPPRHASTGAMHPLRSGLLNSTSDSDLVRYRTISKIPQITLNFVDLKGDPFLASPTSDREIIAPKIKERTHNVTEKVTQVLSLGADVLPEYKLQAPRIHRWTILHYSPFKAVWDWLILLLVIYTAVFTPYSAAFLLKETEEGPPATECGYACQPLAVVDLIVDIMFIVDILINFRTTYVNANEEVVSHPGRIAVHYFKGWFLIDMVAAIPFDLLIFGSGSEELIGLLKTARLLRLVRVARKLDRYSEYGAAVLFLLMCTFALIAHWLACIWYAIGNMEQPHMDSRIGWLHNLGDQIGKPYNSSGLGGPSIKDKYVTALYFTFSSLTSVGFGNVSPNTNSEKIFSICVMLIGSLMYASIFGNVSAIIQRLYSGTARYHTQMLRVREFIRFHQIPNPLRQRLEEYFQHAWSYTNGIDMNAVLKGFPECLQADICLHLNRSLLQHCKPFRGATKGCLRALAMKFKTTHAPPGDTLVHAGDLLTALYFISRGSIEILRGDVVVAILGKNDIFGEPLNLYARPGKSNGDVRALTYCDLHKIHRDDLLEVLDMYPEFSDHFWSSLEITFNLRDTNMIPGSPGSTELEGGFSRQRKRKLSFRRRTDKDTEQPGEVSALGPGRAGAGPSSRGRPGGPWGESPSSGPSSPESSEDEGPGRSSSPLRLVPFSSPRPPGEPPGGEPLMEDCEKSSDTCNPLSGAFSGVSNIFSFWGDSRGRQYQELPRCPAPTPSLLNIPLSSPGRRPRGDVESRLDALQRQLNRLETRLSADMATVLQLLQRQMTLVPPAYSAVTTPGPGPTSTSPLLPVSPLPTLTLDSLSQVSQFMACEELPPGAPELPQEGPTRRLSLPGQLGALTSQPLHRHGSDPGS

| Structure (SMILES) | hERG current change (%, negative = inhibition) at 1uM [%] |
| --- | --- |
| COc1ccc(-n2c(C)cc(C(=O)Cn3nc(C(=O)O)c4ccccc4c3=O)c2C)cc1 | 6.01 |
| COc1cccc(/C=C2\SC(=S)N(NC(=O)c3ccncc3)C2=O)c1 | 8.15 |
| O=C(O)CCCNS(=O)(=O)Cc1ccccc1 | 8.66 |
| CC1CCN(C(=O)c2[nH]cnc2C(=O)NC2CCN(C(=O)OC(C)(C)C)CC2)CC1 | 14.2 |
| Cc1cc(Cl)ccc1NC(=S)NCCCO | 12.4 |
| Cc1cccc(Cn2nc(C(C)(C)C)cc2C(=O)N2CCOCC2)c1 | -5.8 |
| Br.CCn1c(=N)n(CC(=O)c2cccc([N+](=O)[O-])c2)c2ccccc21 | 7.53 |
| CCC(=O)Nc1ccc(NC(=O)CSc2nnnn2-c2ccc3c(c2)OCCO3)cc1 | 0.475 |
| COC(=O)[C@@]1(Cc2ccc(F)cc2)[C@H]2c3cc(C(=O)N(C)C)n(CCSCCO)c3C[C@H]2CN1C(=O)c1ccccc1 | -0.369 |
| O=C(CC(=O)c1ccccc1)Nc1ccc(Cl)cc1 | 12.8 |
| Cc1cc(C)n(CC(=O)n2nc(C)cc2C)n1 | 10.5 |
| CCOC(=O)c1c(NC(=O)c2nn(CC)cc2Br)sc(C)c1C | 15 |
| CC1CN(C(=O)CN(C)S(=O)(=O)c2ccc3ccccc3c2)CC(C)O1 (centres unmarked) | 7.65 |
| O=C(Nc1ccc2oc(-c3ccncc3)nc2c1)c1ccc(Br)o1 | 9.84 |
| CCOC(=O)c1c(-c2ccccc2)csc1N1C(=O)Nc2ccccc2N1O | 11.4 |
| COC(C)c1oc2c(C)c3oc(=O)cc(C)c3cc2c1C (centres unmarked) | 4.36 |
| Cc1[nH]n(S(=O)(=O)c2ccccc2)c(=O)c1N=Nc1cccc(Cl)c1 | 13.6 |
| O=C(Nc1ccccc1Cl)c1ccccc1Cl | -6.03 |
| Cc1cnc(C(=O)OCC(=O)NC2CCCCCC2)cn1 | 18.8 |
| COc1ccc(C)cc1NC(=O)C1CCN(S(=O)(=O)c2cccs2)CC1 | 15.6 |
| CC12CCC(C(=O)O)(C/C1=N\O)C2(C)C (centres unmarked) | -2.26 |
| Cc1ccccc1-c1nc(CN2CCC(C(=O)NC3CCN(Cc4ccccc4)CC3)CC2)c(C)o1 | 0.832 |
| Cn1c(OCc2cccnc2)nc2c1c(=O)n(Cc1ccc(Br)cc1)c(=O)n2C | -1.38 |

| Structure (SMILES) | hERG current change (%, negative = inhibition) at 1uM [%] |
| --- | --- |
| Cc1nnc(NC(=O)C2COc3ccccc3O2)s1 (centres unmarked) | 5.45 |
| CCOC(=O)CCc1c(C)c2ccc(OCC(=O)N3CCOCC3)c(C)c2oc1=O | -6.26 |
| Cc1ccc(S(=O)(=O)Nc2ccccc2F)cc1C(=O)OC(C)C(=O)N1CCOCC1 (centres unmarked) | -2.56 |
| NC(=O)c1sc2nc(N3CCCCC3)c3c(c2c1N)CCCC3 | 4.86 |
| COc1ccc(CCN2C(=O)c3[nH]nc(-c4ccccc4O)c3C2c2ccc(C)cc2)cc1OC (centres unmarked) | 5.82 |
| Cl.NCCCCc1cn(CC(=O)N2CCNCC2)nn1 | 13.4 |
| CC(C)Cc1cc(C(=O)Nc2cc(Br)ccc2O)no1 | 0.505 |
| COc1ccccc1C(O)(C(=O)NNc1ccccc1C)c1ccccc1OC | 32.6 |
| CCc1n[nH]c(=S)n1/N=C/c1ccc(-c2ccc(Br)cc2)o1 | 12.5 |
| O=C1NC(=O)/C(=C\c2ccc(Cl)nc2)S1 | 12.5 |
| O=c1[nH]c(=O)n(CCOc2ccc(Cl)cc2)cc1Br | 13.1 |
| COc1ccccc1NC(=O)CSc1nncn1-c1cccnc1 | 5.56 |
| O=C(NC(=S)N1CCCCCC1)c1ccccc1 | 17.6 |
| COC(=O)c1cc(S(=O)(=O)Nc2cc(OC)cc(OC)c2)c[nH]1 | 17.7 |
| Cc1nnc(NC(=O)c2cccc(S(=O)(=O)N3CC(c4ccccc4)CC3=O)c2)s1 (centres unmarked) | 2.8 |
| CCC(=O)N1CCc2cc(S(=O)(=O)CCC(=O)NCc3ccc(C)cc3)ccc21 | 15.1 |
| COc1ccc(-n2ccnc(SCC(=O)NC3CCCC3)c2=O)cc1 | -4.46 |
| Cn1cnnc1SCC(C)(C)NS(=O)(=O)c1ccc(Cl)cc1 | 26.4 |
| CC(=O)N1CCOc2ccc(S(=O)(=O)NCCc3ccc(C)cc3)cc21 | 10.1 |
| CC(C)(C)n1nnnc1C(c1cccnc1)N1CCN(c2ccccc2F)CC1 (centres unmarked) | 15.7 |
| Cc1cc2oc(=O)cc(CN3CCCc4ccccc43)c2cc1C | 12.9 |
| Cc1ccc(-c2nc(CS(=O)(=O)CC(=O)NCc3ccc4c(c3)OCO4)c(C)o2)cc1 | 5.42 |
| COc1ccc(OC)c(NC(=O)CSc2ncnc3c2cnn3-c2ccccc2Cl)c1 | 8.73 |

| Structure (SMILES) | hERG current change (%, negative = inhibition) at 1uM [%] |
| --- | --- |
| O=C(OCC(=O)N1CCCc2ccccc21)c1cc(S(=O)(=O)N2CCOCC2)ccc1F | 8.04 |
| CCN(CC(=O)NCc1ccc(Cl)cc1)C(=O)/C=C/c1ccc(Cl)c([N+](=O)[O-])c1 | -29.6 |
| COc1ccc(-n2c(SCC(=O)NNC(=O)c3ccc(C)cc3)nnc2-c2ccncc2)cc1 | 1.58 |
| COc1ccc(CSCCc2n[nH]c(=S)n2-c2ccccc2)cc1C | 13.7 |
| N#C/C(=C\c1ccccc1)C(=O)Nc1cc(S(=O)(=O)N2CCOCC2)ccc1N1CCCC1 | 4.4 |
| CC(CCCC(C)(C)O)NCc1cn[nH]c1-c1ccc2c(c1)OCO2 (centres unmarked) | 3.76 |
| Cc1ccc(C(=O)OCc2nc(N)nc(Nc3ccccc3C)n2)cc1 | 18 |
| CN(C)N=Nc1ccc(S(=O)(=O)NC(=O)Cc2ccccc2)cc1 | 11.8 |
| O=C(CN1CCN(Cc2ccc(Cl)cc2)C1=O)NCc1cccs1 | -28.1 |
| CN1CCN(NC(=O)CSc2ccc(Cl)cc2Cl)CC1 | 11.9 |
| C(=N\N(c1ccccc1)c1ccccc1)/c1ccccn1 | 10.6 |
| O=C(CCc1ccccc1)Nc1nn[nH]n1 | 7.19 |
| COc1ccc(C(=O)OCCCN(C)C)cc1OC | -0.465 |
| CCC(NC(=O)c1oc2ccccc2c1COC)c1ccc(OC)cc1 (centres unmarked) | 15.6 |
| COCCSc1ccccc1C(=O)Nc1nnc(C)s1 | 2.81 |
| O=C(Cc1cccs1)Nc1nnc(C2CC2)s1 | 14.2 |
| Cc1ccc(NC(=O)Cc2sc(C)nc2-c2ccc(C)cc2)cc1 | 8.6 |
| O=C(C[n+]1ccn(CCCNP2(=O)C=C(c3ccccc3)OC(c3ccccc3)=C2)c1)c1ccccc1.[Br-] | 4.27 |
| COc1ccc(Cn2c(O)cc(=O)[nH]c2=O)cc1 | 14.4 |
| COc1cc(/C=N/NC(=O)c2cc(-c3cccc(OC(C)C)c3)nc3ccccc23)ccc1O | -2.48 |
| CCCOCC1CC(CCc2nc(=S)[nH][nH]2)C(=O)O1 (centres unmarked) | 13.1 |
| CCc1c(C(=O)OC)nnc2cc(C)nn12 | 13.5 |
| NC(=O)CN1C(=O)C(=O)N(Cc2ccc(F)cc2)C1=O | 16.4 |

| Structure (SMILES) | hERG current change (%, negative = inhibition) at 1uM [%] |
| --- | --- |
| Cc1cccc2cc(CN(C(=O)c3cnccn3)C3CCCCC3)c(Cl)nc12 | 17.8 |
| CCCOc1ccccc1/C=C1\SC(N2CCCCC2)=NC1=O | 7.48 |
| O=C1CC2(CCN(C(=O)C3CC(=O)N(c4ccc(F)cc4)C3)CC2)Oc2ccccc21 (centres unmarked) | -73.6 |
| COc1ccc(S(=O)(=O)NC2CCCC2)cc1Br | 8.08 |
| COc1ccc(C(C)=O)cc1CN1C(=O)NC2(CCCCC2C)C1=O (centres unmarked) | 3.83 |
| Nc1nc(-c2ccccc2)nn1C(=O)Cc1ccccc1 | 14 |
| O=C(CS(=O)(=O)c1cn(Cc2ccc(Cl)cc2)c2ccccc12)N1CCCCC1 | 14.4 |
| O=C(NCc1ccco1)C1CCCN(S(=O)(=O)c2ccc(Cl)cc2)C1 (centres unmarked) | -5.62 |
| O=C(Cn1nc(Cc2ccncc2)c2ccccc2c1=O)N1CCN(C(=O)c2ccco2)CC1 | -2.41 |
| O=c1c2ccccc2nc(-c2ccccc2Cl)n1-c1cccc(O)c1 | 9.24 |
| Cc1cc(SCNC(=O)c2ccccc2)ncn1 | 8.84 |
| O=C(CSc1nnc(Cn2cnc3ccccc32)o1)c1ccccc1 | 9.46 |
| CN(C(=O)COC(=O)c1ccc2c(c1)OCCO2)c1ccccc1 | 9.97 |
| COc1ccc(OC)c(C(=O)c2coc3ccc(O)c(CN(C)C)c23)c1.Cl | 9.87 |
| COc1ccc(CCNC(=O)c2cc3c(F)cccc3s2)cc1OC | 5.74 |
| O=C(NCC1CCN(Cc2ccccc2F)CC1)Nc1cc(F)ccc1F | -32.1 |
| CCOC(=O)c1cccc(NC(=O)CCS(=O)(=O)c2cccs2)c1 | 2.43 |
| CCn1c(SCC(=O)Nc2ccc(OC)cc2OC)nc2nc3c(cc2c1=O)COC(C)(C)C3 | 8.13 |
| COCC(=O)Nc1ccc(S(=O)(=O)Nc2ccccn2)cc1 | 21.6 |
| COc1ccc(CCNC(=O)CSc2cc(=O)[nH]c(N)n2)cc1OC | 7.12 |
